Read counts are not given, so values of variants with three or more changes are uncertain.

In the RNAGym collection of RNA variant scans (doi:10.1093/nar/gkz1192) one finds self-cleavage data, which are given here for 34 variants.

The chains are these.
B1: CPEB3 Ribozyme (parent)
chain: UAACAGGGGGCCACAGCAGAAGCGUUCACGUCGCAGCCCCUGUCAGAUUCUGGUGAAUCUGCGAAUUCUGCUGUAUAUCUC

The variants in the data set derive from B1. Description: self-cleavage, relative activity (ratio to wild type); higher = more cleavage; in vitro, sequencing. The essentials:
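CPEB3 self-cleaving ribozyme mutant libraries were made by rounds of error-prone PCR, barcoded, and transcribed in vitro with T7 RNA polymerase for 5 hours at 37°C. Cleavage occurred during transcription and a 15 min DNase I step before EDTA stop. RNAs were reverse transcribed with template switching and Illumina-sequenced, with DNA sequencing mapping barcodes to variants. Relative activity is the variant's cleaved/total read fraction divided by wild type's (minimum 5 reads), averaged across three batches.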
Turning to UAACAGGGGGCCACAGCAGGGGCGUACACGUCGCAGCCCCUGUCAGAUUCCGGUGAAUCUGCCAAUUCUGCUUUAUACCUC [A20G A21G U26A U51C G63C G73U U78C], the self-cleavage is 0.05. Turning to UAACAGGGGGCCACAGCAUAAGCGUUCACGUCGCAGCCCCAGUCAGAUUCUGGUGAAUCUGCGAAUUCUGCUAUAUAUCUC [G19U U41A G73A], the self-cleavage was 0.06.

In the case of UAACAGGGGGCCACAGCACAAGCGUCCACGUCGCAGCCCCUGUCAGAUUCUGGUGAAUCUGCGAAUUCUGCAGUAUAUCUC [G19C U26C U72A], the self-cleavage is 0.04. UAACAGGGGGCCACAGCAUAGGCGUUCACGUCGCAGCCCCUGUCAGAUUCUAGUGAAUCUGCGAAUUCUGCUGUAUAUCUC [G19U A21G G52A]: the self-cleavage turned out to be 0.11. As to UAACAGGGGGCCACAGCAUAAGCGUUCACGUCGCAGCCCUUGUCAGGCUCUUGUGAAUCUGCGAAUUCUGCUGUAUAUCUC [G19U C40U A47G U48C G52U], the self-cleavage was 0.12. In the case of UAACAGGGGGCCACAGCAGCAGCGUUCACGUCGCUGCCCCUGUCAGAUUCUGGUGAAUCUGUGAAUUCUGCUGUAUAUCUC [A20C A35U C62U] it was 0.32; in that of UAACAGGGGGCCACAGCACAAGCGCUCACGUCGCGGCCCCUGUCAGAUCCUGGUGAAUCUGCGAAUUCUGCUGUAUAUCUC [G19C U25C A35G U49C], 0.22. In the case of UAACAGGGGGCCACAGCAGCAGCGCUCACGUCGCAGCCCCUGUCAGAUUCUGGUGAAUCUACGAAUUCUGCUGUAUAUCUC [A20C U25C G61A] it was 0.17; in that of UAACAGGGGGCCACAGCAGCAGCGUCCACGUCGCAGUCCCUGUCAGAUUCUGGUGAAUCUGCGAAUUCUACUGUAUAUCUC [A20C U26C C37U G70A], 0.05; in that of UAACAGGGGGCCACAGCAGCAGCGUUCACGUCGCAGCCCCUGUCUGAUUCUGGUGAAUCUGCGAAUGCUGCUGUAUACCUC [A20C A45U U67G U78C], 0.41. As for UAACAGGGGGCCACAGCAGCAGCGUACACGUCCCAGCCCCUGUCAGAUUCCGGUGGAACUGCGGAUUCUGCUGUAUAUCUC [A20C U26A G33C U51C A56G U58A A64G], the self-cleavage was found to be 0.04. Then UAACAGGGGGCCACAGCAUAAGCGUUCACGUCGCGGCCCCUGUCCGAUUCUGGUGAAUCUACGAAUUCUGCUGUAUAUCUC [G19U A35G A45C G61A], with 0.17; and UAACAGGGGGCCACAGCAUAAGCGUUUGCGUCGCUGCCCCUGUCAGAUUCUGGUGAAUCUGCGAAUUCUGCUGUAUAUCUC [G19U C27U A28G A35U], with 0.06; and UAACAGGGGGCCACAGCAGGGGCGUUCACGUCGCGGCCCCUGUCAGAUUCUGGUGAAUCUGCGGAUUCUGCAGUAUAUCUC [A20G A21G A35G A64G U72A], with 0.22.

For the variant UAACAGGGGGCCACAGCAGGGGCGUUCACGUCGCAGCCCCUGUAAGAUUCUGGUGAAUCUGCGAAUUCUGCUGUAUAUCUC [A20G A21G C44A], the self-cleavage came to 0.26. In the case of UAACAGGGGGCCACAGCAUAGGCAUUCACGUCGCGGCCCCUGUCGGAUUCUGGUGAAUCUGCGUAUUCUGCUGUAUAUCUC [G19U A21G G24A A35G A45G A64U] it was 0.12; in that of UAACAGGGGGCCACAGCAGCAGCGUUCACGUCGCAGCCCCUGUCAGAUUCUGGUGAAUCUGCGAAUCCUGCUGUGUAACUC [A20C U67C A75G U78A], 0.09. In the case of UAACAGGGGGCCACAGCAGGGGCGUACACGUCGCAGCCCCUGUCAGAUUCUGGUGAAUCUGCGUAUUCUGCUGUAUAUCUC [A20G A21G U26A A64U] it was 0.37. In the case of UAACAGGGGGCCACAGCAGCAGCGUUCACGUCGCAGCCCCUGUCAGAUCCUGGCGAAUCUGCGAAUUCUGCUGUAUAUCUC [A20C U49C U54C] it was 0.26; in that of UAACAGGGGGCCACAGCACAAGCGUUCACGUCGCAGACCCUGUCAGAUUCUGGUGAAUCCGCGAAUUCCGCUGUAUAUCUC [G19C C37A U60C U69C], 0.05; in that of UAACAGGGGGCCACAGCACAAGAGUUCGCGUCGCAGCCCCUGUCAGAUUCUGGUGAAUCUGCGAAUUCUGCUGUAUACCUC [G19C C23A A28G U78C], 0.05. UAACAGGGGGCCACAGCAUAAGCGUUCACGUCGCGGCCCCUGUCCGAUUCUGGUGAAUCUGCGAAUUCUGCUGUAUAUCUC [G19U A35G A45C]: the self-cleavage is 0.22.

Take UAACAGGGGGCCACAGCAUAAGCAUUCACGUCGCAGCCCCUGUCAGUUUCUGGUGAAUCUGCGAAUUCUGCAGUAUACCUC [G19U G24A A47U U72A U78C]: the self-cleavage turned out to be 0.07. Then UAACAGGGGGCCACAGCAGCAGCGUUCACGUCGCAGCCCCAGUCAGAUUCUGGUGAAUCUGCGAGUUCAGCUGUAUAUCUC [A20C U41A A65G U69A], with 0.13. In the case of UAACAGGGGGCCACAGCAGCAGCGUCCACGUCGCAGCCCCUGUCAGAUUCUGGUGAAUCUGCGAAUUCUGCCGUAUAUCUC [A20C U26C U72C] it was 0.49. Then UAACAGGGGGCCACAGCACAAGCGUUCACGCCGCAGCCCCUGUCAGACUCUGGUGAAUCUGCGAAUUCAGCUGUAUAUCUC [G19C U31C U48C U69A], with 0.15; and UAACAGGGGGCCACAGCAUAAGCGUCCUCGUCGCAGCCCCUGUCAGAUUCUGGUGAAUCUGCGAAUUCUGCUGUAUAUCUC [G19U U26C A28U], with 0.42.

For UAACAGGGGGCCACAGCAUAGGCGUUCACGUCGCAGCCCCUGUCAGAUUCUAGUGAAUCUGCGAAUUCUGCUGAAUAUCUC [G19U A21G G52A U74A], the self-cleavage was found to be 0.1. In the case of UAACAGGGGGCCACAGCAGGCGCGCUCACGUCGCAGCCCCUGUCAGAUUCUGGUGAAUCUGCGAAUCCUGCUGUAUAUCUC [A20G A21C U25C U67C] it was 0.17; in that of UAACAGGGGGCCACAGCAGGGGCGUUCACGUCGCAGCCCCUGUCAGAUUCUGGUGAGUCUGCGAAUUCUGCUGUAUAUCUC [A20G A21G A57G], 0.1. Then UAACAGGGGGCCACAGCAGGGGCGUUCACGUCGCAGCCCCUGUCAGAUUCUGGUGACUCUGCGAAUUCUGCUGUAUAUCUC [A20G A21G A57C], with 0.33; and UAACAGGGGGCCACAGCAUAAGCGUUCACGUCGCAGUCCCUGUCAGAUUCUGGUGAACCUGCGAAUUCUGCUAUAUAUCUC [G19U C37U U58C G73A], with 0.21; and UAACAGGGGGCCACAGCAGCAGCGUUCACGUCGCAGCUCCUGUCAGAUUCUGGUGGAUCUGCGAAUUCUGCUGUAUAUCUC [A20C C38U A56G], with 0.2.

For UAACAGGGGGCCACAGCAUGAGCGUUCACGUCGCAGCCCCAGUCAGAUUCUAGUGAAUCUGCGAAUUCUGCUGUAUAUCUC [G19U A20G U41A G52A], the self-cleavage was 0.07.
